Test results: the BET-seq Pho4 binding data (Le et al. 2018)
The other results are listed elsewhere or left out. The energies were worked out here from pooled read counts, against the library average; single values are noisy.

These sequences were tested against T1, Pho4 (S. cerevisiae) (UniProt P07270) (assay: relative binding free energy (BET-seq); higher = weaker binding). Details: reference: library average.
T1 sequence: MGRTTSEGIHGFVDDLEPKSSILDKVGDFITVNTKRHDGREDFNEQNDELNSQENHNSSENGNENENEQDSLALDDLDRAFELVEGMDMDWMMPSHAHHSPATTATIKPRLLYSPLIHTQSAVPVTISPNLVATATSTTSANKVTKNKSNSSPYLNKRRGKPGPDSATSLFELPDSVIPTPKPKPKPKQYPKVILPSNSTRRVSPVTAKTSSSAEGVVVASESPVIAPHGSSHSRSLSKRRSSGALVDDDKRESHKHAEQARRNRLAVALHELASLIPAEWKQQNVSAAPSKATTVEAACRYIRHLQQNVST

Sequence	relative binding free energy
TATGTCACGTGCCGTT	-0.03 kcal/mol
TATTACACGTGATTTA	0.06 kcal/mol
GTTATCACGTGGGACT	0.18 kcal/mol
GTTGGCACGTGTGATT	0.16 kcal/mol
TCTGGCACGTGTAAGG	-0.04 kcal/mol
TGGGTCACGTGAGTGC	0.26 kcal/mol
TTTTCCACGTGGGTTT	-0.1 kcal/mol
GCAGGCACGTGGATGT	-0.09 kcal/mol
TGGACCACGTGGGTAG	-0.3 kcal/mol
GCGCTCACGTGGGTTG	0.04 kcal/mol
ATTGACACGTGGATTT	0.01 kcal/mol
TTGTCCACGTGGAAGT	0.03 kcal/mol
TTGAGCACGTGGAGAA	0.06 kcal/mol
TTGTGCACGTGTGCTC	0.04 kcal/mol
TTTGGCACGTGGAGGG	-0.09 kcal/mol
ATGTCCACGTGAGTGT	0.29 kcal/mol
GATAGCACGTGAAAGG	0.23 kcal/mol
AGTGTCACGTGGTGTA	-0.02 kcal/mol
GAGTACACGTGTAGTG	0.1 kcal/mol
GGCTTCACGTGTATTG	0.11 kcal/mol
TTTGGCACGTGCATGG	-0.17 kcal/mol
TGAGCCACGTGCTGTG	-0.13 kcal/mol
TATTTCACGTGTATGA	0.26 kcal/mol
ATACTCACGTGTTGAT	0.21 kcal/mol
AGTTGCACGTGCGGTG	-0.02 kcal/mol
TGTTACACGTGTGAAA	0.19 kcal/mol

Sequence	relative binding free energy
CGGTCCACGTGGGGCA	-0.08 kcal/mol
TATATCACGTGAACGG	0.26 kcal/mol
ATTAGCACGTGTGTTT	-0.05 kcal/mol
AGTGTCACGTGATTAC	0.2 kcal/mol
GTTGACACGTGTCTGA	0.11 kcal/mol
CGTGCCACGTGTGTTT	-0.12 kcal/mol
GTAATCACGTGATCGT	0.3 kcal/mol
CGACGCACGTGGTAGG	-0.08 kcal/mol
GAGTTCACGTGCTAGG	0.17 kcal/mol
CGTGTCACGTGAGAGA	0.4 kcal/mol
TGTATCACGTGAATGT	0.42 kcal/mol
AGGTGCACGTGGTCGC	-0.09 kcal/mol
GAGAGCACGTGTATAT	0.05 kcal/mol
AAAGGCACGTGGCGTG	-0.28 kcal/mol
TGCTACACGTGTATGG	0.17 kcal/mol
CGGGGCACGTGTTCGA	-0.13 kcal/mol
GCGGGCACGTGGCGTA	-0.13 kcal/mol
ATTGCCACGTGAGCGG	0.06 kcal/mol
TATGGCACGTGCGTGT	-0.19 kcal/mol
TTGCGCACGTGTGTGT	-0.07 kcal/mol
TGGTGCACGTGTGTAT	0.07 kcal/mol
ATGGGCACGTGTTTCT	-0.06 kcal/mol
TCGCACACGTGGGGGT	-0.07 kcal/mol
TGTTCCACGTGTAAGT	0.16 kcal/mol
GGGTCCACGTGTAGTG	0.06 kcal/mol
GGTCACACGTGGTTTT	0.06 kcal/mol

Sequence	relative binding free energy
AGATTCACGTGGTTGG	0.24 kcal/mol
CATCGCACGTGAGGGG	0.05 kcal/mol
ACCTTCACGTGGGAGG	0.22 kcal/mol
TTTATCACGTGTTGTT	0.14 kcal/mol
GCTAGCACGTGAGGGG	0.08 kcal/mol
AGCGGCACGTGAGTTA	0.12 kcal/mol
TTTTACACGTGGCATA	0.06 kcal/mol
TTATTCACGTGCGTTA	0.27 kcal/mol
ATATTCACGTGTTTGA	0.21 kcal/mol
TCAGGCACGTGTTGTT	-0.23 kcal/mol
TATTTCACGTGTATGG	0.28 kcal/mol
TTGTGCACGTGGTTCA	-0.13 kcal/mol
ATGTTCACGTGGAGTT	0.21 kcal/mol
ATAGGCACGTGCTGTT	-0.13 kcal/mol
ATTTGCACGTGTGCAT	0.03 kcal/mol
CGGCTCACGTGGGGGG	0.15 kcal/mol
AGGCGCACGTGGGTCG	-0.31 kcal/mol
GAGTTCACGTGAAGAG	0.32 kcal/mol
TTATTCACGTGGTACA	0.14 kcal/mol
TGGATCACGTGGTGGA	0.28 kcal/mol
CTGGACACGTGTAGTA	0.11 kcal/mol
TGTGGCACGTGTGCGT	-0.11 kcal/mol
GTTAGCACGTGAGCGT	0.07 kcal/mol
ATTGTCACGTGAAATT	0.34 kcal/mol
CGTGGCACGTGCACGG	-0.16 kcal/mol
TGTATCACGTGTTGGA	0.08 kcal/mol

Sequence	relative binding free energy
TAATTCACGTGTAGTT	0.27 kcal/mol
TAATGCACGTGGCTAT	-0.08 kcal/mol
GTTATCACGTGGTCCT	0.09 kcal/mol
AGTTGCACGTGGACGT	0.03 kcal/mol
TGGACCACGTGTGGTG	-0.07 kcal/mol
TGGACCACGTGGTGGA	0.04 kcal/mol
TTGCGCACGTGTTGAA	-0.05 kcal/mol
GAATGCACGTGGTGTA	-0.19 kcal/mol
TCTTTCACGTGTTAGA	0.22 kcal/mol
AGGTACACGTGTAGTC	0.12 kcal/mol
TATAGCACGTGTAGGC	-0.05 kcal/mol
AGTGACACGTGTGGAC	0.05 kcal/mol
TTCAACACGTGTGGGA	0.06 kcal/mol
TTATTCACGTGTGGCT	0.24 kcal/mol
GTGTTCACGTGAAGTC	0.36 kcal/mol
TGGTGCACGTGGTAGG	-0.12 kcal/mol
TAGCGCACGTGTAGTA	-0.02 kcal/mol
TATGCCACGTGGTGTG	-0.18 kcal/mol
GTAACCACGTGTTTGG	0 kcal/mol
TGAGTCACGTGGTTTA	0.1 kcal/mol
AACTGCACGTGGGAGT	0.02 kcal/mol
GGTTTCACGTGGAAGC	0.24 kcal/mol
CTGCTCACGTGTTGGT	0.05 kcal/mol
AAAGTCACGTGTGCTG	0.01 kcal/mol
TGTTTCACGTGTTGAC	0.34 kcal/mol
TTCCGCACGTGTGTTT	0.03 kcal/mol

Sequence	relative binding free energy
GTTCGCACGTGTAGGG	0.06 kcal/mol
AAGGACACGTGTGGAA	0.16 kcal/mol
TTGAGCACGTGTAGTG	-0.01 kcal/mol
TGTTGCACGTGGGTCA	-0.26 kcal/mol
ACAGGCACGTGGGTGA	-0.24 kcal/mol
CGAGGCACGTGTGGAA	-0.02 kcal/mol
TTTGGCACGTGGGACC	-0.19 kcal/mol
TGGTACACGTGGTATA	0 kcal/mol
ATGCACACGTGATGGT	0.12 kcal/mol
GTAACCACGTGTTTGT	-0.1 kcal/mol
AGGACCACGTGTGGAT	0.06 kcal/mol
AGTTACACGTGATGGC	0.16 kcal/mol
TCGTTCACGTGGGGCA	0.24 kcal/mol
CGAATCACGTGGGGTA	0.02 kcal/mol
GTGGGCACGTGCAGTT	-0.03 kcal/mol
GTTACCACGTGGGGTG	-0.2 kcal/mol
GGTGGCACGTGGGCCT	-0.09 kcal/mol
GGATTCACGTGCGGTG	0.33 kcal/mol
GGGCGCACGTGAGGTG	0.22 kcal/mol
TAAGGCACGTGATGAT	-0.02 kcal/mol
TTTATCACGTGGTCGG	0.09 kcal/mol
TTATGCACGTGGGGGA	-0.24 kcal/mol
TGGAGCACGTGCTAGG	-0.2 kcal/mol
TAAGGCACGTGAAGTT	0.16 kcal/mol
TGAAACACGTGGAGGT	0.02 kcal/mol
TCTGGCACGTGCAGGA	-0.05 kcal/mol

Sequence	relative binding free energy
ACCGGCACGTGAGGGG	0.08 kcal/mol
ATGTACACGTGTGATA	0.24 kcal/mol
TCGTTCACGTGGTGCG	0.22 kcal/mol
TGGCTCACGTGGAGCG	0.11 kcal/mol
TTCTTCACGTGTTTGT	0.23 kcal/mol
TTGATCACGTGACATG	0.33 kcal/mol
TGTACCACGTGCGGGT	-0.08 kcal/mol
AGACGCACGTGGGTTA	-0.2 kcal/mol
TGGCTCACGTGGTGTT	0.18 kcal/mol
AAGGCCACGTGCAGGG	-0.07 kcal/mol
TTTATCACGTGTGTAG	0.2 kcal/mol
GGGGGCACGTGTGACT	-0.01 kcal/mol
TTCGTCACGTGTCGAG	0.15 kcal/mol
GGTAGCACGTGGTTGA	-0.15 kcal/mol
CTTGTCACGTGTTTAG	0.04 kcal/mol
GTCTGCACGTGGTAGA	-0.03 kcal/mol
ACTTTCACGTGTGGTT	0.28 kcal/mol
TGAAGCACGTGAAGTA	0.19 kcal/mol
CAGGTCACGTGCGTGT	-0.04 kcal/mol
ATATGCACGTGGAGGT	-0.06 kcal/mol
TATTTCACGTGCATAT	0.32 kcal/mol
ATTTGCACGTGGTTTA	-0.1 kcal/mol
GGGCTCACGTGAGATG	0.55 kcal/mol
TCGAACACGTGGTGTT	-0.09 kcal/mol
ATGTACACGTGCGTAT	0 kcal/mol
TTGGACACGTGGATAT	0.18 kcal/mol

Sequence	relative binding free energy
AAGTTCACGTGAGTCT	0.45 kcal/mol
GGACTCACGTGGTGGA	0.32 kcal/mol
GGATTCACGTGGTTCT	0.13 kcal/mol
GTGGCCACGTGTGGTT	-0.01 kcal/mol
AAGATCACGTGTTGTG	0.23 kcal/mol
ATAGACACGTGGGCTT	-0.08 kcal/mol
TTTTGCACGTGGGGGT	-0.04 kcal/mol
CTTAGCACGTGTTAGG	-0.04 kcal/mol
GTTTTCACGTGTAGAA	0.23 kcal/mol
ATGTGCACGTGTTTAC	0 kcal/mol
TTAAACACGTGGATTA	0.07 kcal/mol
ATTGTCACGTGCGTGC	0.03 kcal/mol
TATGACACGTGTTGTT	0.06 kcal/mol
TAACACACGTGTTTGG	0.04 kcal/mol
TGAAACACGTGGTATT	-0.02 kcal/mol
TTTGTCACGTGTGCTG	0.07 kcal/mol
ATAGTCACGTGAGGAA	0.29 kcal/mol
TAATGCACGTGGTTCT	-0.2 kcal/mol
ATGTACACGTGTTGTA	0.01 kcal/mol
TACGACACGTGTTGTT	0.03 kcal/mol
TGGTACACGTGTTCGG	0.13 kcal/mol
ACATGCACGTGTGGTG	0.07 kcal/mol
TGTATCACGTGTATTT	0.14 kcal/mol
GGGATCACGTGGCTTA	0.06 kcal/mol
TATGTCACGTGCTTGT	0.07 kcal/mol
AGCTTCACGTGGGATT	0.33 kcal/mol

Sequence	relative binding free energy
GAGCGCACGTGCGTGG	-0.22 kcal/mol
TGGTTCACGTGAAGTA	0.31 kcal/mol
AAGGTCACGTGTGAGC	0.09 kcal/mol
TGAGTCACGTGGAAGA	0.26 kcal/mol
TTGCTCACGTGGGCTT	0.11 kcal/mol
GAGATCACGTGGGCAG	0.25 kcal/mol
GTGTGCACGTGTAATG	-0.06 kcal/mol
TGTGGCACGTGTGATG	0.06 kcal/mol
ATTGCCACGTGTTGTG	-0.12 kcal/mol
GTTGTCACGTGTAGCG	0.25 kcal/mol
ATGAGCACGTGTGGGG	0.04 kcal/mol
AGGGGCACGTGGATAT	-0.15 kcal/mol
AGTGGCACGTGGTTAA	-0.1 kcal/mol
ATTTGCACGTGGTACT	-0.09 kcal/mol
GTAGGCACGTGGTTAT	-0.2 kcal/mol
TTGTTCACGTGGAGGT	0.3 kcal/mol
GGGGGCACGTGCGTGA	-0.19 kcal/mol
TGTCGCACGTGCGGGA	-0.19 kcal/mol
TGAAACACGTGAAGTG	0.11 kcal/mol
TCTGACACGTGTAGTT	0.05 kcal/mol
TTTTTCACGTGAAACT	0.42 kcal/mol
TTCGACACGTGAAAGG	0.46 kcal/mol
GAATGCACGTGTGGCT	0.06 kcal/mol
AGCGGCACGTGGAAGT	0.03 kcal/mol
GTGGGCACGTGTCTGG	-0.14 kcal/mol
TATAGCACGTGAAGGT	0.07 kcal/mol

Sequence	relative binding free energy
CTTCACACGTGTTGGT	0.05 kcal/mol
TGGGTCACGTGTATGC	0.16 kcal/mol
ACTTGCACGTGGGTTG	-0.06 kcal/mol
TAGAACACGTGTAGGT	-0.04 kcal/mol
AACTGCACGTGTTGTG	0.06 kcal/mol
TGGGGCACGTGAGATC	0 kcal/mol
AGGGGCACGTGAGGCA	-0.04 kcal/mol
GGCAGCACGTGTGTGC	-0.03 kcal/mol
GTATGCACGTGTATGC	-0.08 kcal/mol
GTTGTCACGTGCGACG	0.17 kcal/mol
TGTTTCACGTGCTTGA	0.19 kcal/mol
ATAGCCACGTGGGGTG	-0.28 kcal/mol
GGGGTCACGTGATGTC	0.36 kcal/mol
GGGCCCACGTGGTTGG	-0.04 kcal/mol
TGAAGCACGTGAATGT	0.19 kcal/mol
CAGAGCACGTGTTGTT	-0.1 kcal/mol
CGGGGCACGTGTGTTT	-0.02 kcal/mol
GTTGGCACGTGGGGCT	-0.11 kcal/mol
CAGGTCACGTGGTTGG	0.1 kcal/mol
GGTTACACGTGCATAG	0.14 kcal/mol
TGAGACACGTGAGGGT	0.24 kcal/mol
GGGGACACGTGTTAGC	-0.04 kcal/mol
